# Screen size: about 45,000 compounds; about 200 (0.44%) were called active. This list was built around the results that the source calls inconclusive (neither active nor inactive); the mix of calls is not that of the screen. The call rests on the fitted dose curve; in most records, active means well fitted activation curve with a large enough effect; inconclusive means small, poorly fitted or top-dose-only effect; inactive means no such curve, though single readings can be large or run the other way. A potency beside an inconclusive call is a rough fit, not a confirmed value.
# Assay: qHTS of TDP-43 Inhibitors: NCGC Sytravon Library Screen; further: nearly all actives have a fitted effect of over 55% in size; on growth rescue (activation): 0% is about no effect
# Details: yeast TDP-43 toxicity rescue, BacTiter-Glo growth, 24 h; growth rescue (activation): at 46.1 µM (top of the series)
# Method in brief: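 TDP-43-expressing yeast, pregrown in raffinose, seeded at OD600 0.02 in galactose medium with compound for 24 hr at 30 deg C. Growth read by BacTiter-Glo luminescence, so rescue of toxicity appears as activation.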
# Potency means the concentration at half of the fitted maximal effect; tags describe the fitted curve by direction and shape.
SMILES,Potency,growth rescue (activation)
CC(NC(=O)OCc1ccccc1)C(=O)Oc1cc2oc(=O)cc(-c3ccccc3)c2cc1Cl (stereo not given),active: 4.47 µM,
O=C(/C=C/c1ccccc1Cl)c1cccnc1,"inconclusive: 12.6 µM [activator, single point]",
CCn1c(SCC(=O)N/N=C/c2c[nH]c3ccccc23)nnc1-c1ccc(Cl)cc1,,inactive: 20.3%
COc1c(OC(C)=O)ccc(/C=C/c2ccc3cccc(OCc4ccccc4)c3n2)c1[N+](=O)[O-],,inactive: 14%
O=C(/C=C/c1cccc([N+](=O)[O-])c1)NCCSc1ccccc1,"inconclusive: 11.2 µM [activator, partial curve, poor fit]",
O=C(NC(=S)Nc1ccc(N2CCOCC2)c(Cl)c1)c1cncc(Br)c1,"inconclusive: 31.6 µM [activator, single point]",
CC(C)c1ccc(OCC(=O)N2CCCCCC2)c(Br)c1,"inconclusive: 11.2 µM [activator, partial curve, poor fit]",
Cc1cccc(Nc2nc(N)nc(-c3oc4ccccc4c3C)n2)c1,"inconclusive: 14.1 µM [activator, partial curve, poor fit]",
CCn1cc(C(=O)NCC(=O)NC(C)(C)CO)c(=O)c2cc3c(cc21)OCO3,,inactive: 6.6%
COc1ccc(C(C)(O)c2nc(-c3cccs3)cs2)cc1 (stereo not given),,inconclusive: 49.7% [activator]
Cc1ccc(-c2csc(C(O)c3ccc(F)cc3)n2)cc1C (stereo not given),"inconclusive: 3.16 µM [activator, full curve]",
Clc1cccc(CNc2ccn3nc(-c4cccs4)cc3n2)c1,"inconclusive: 20 µM [activator, single point]",
O=C(O)CN1C(=O)/C(=C\c2cccc(OCc3ccc(Cl)cc3Cl)c2)SC1=S,,inactive: 4.56%
COc1ccccc1N1CCN(C(=O)CNC(=O)c2ccc(Cl)cc2Cl)CC1,"inconclusive: 20 µM [activator, single point]",
CCCOc1ccc(F)cc1-c1cc(C(=O)NC2CCCCC2)[nH]n1,,inconclusive: 83% [activator]
O=C(COc1ccccc1Br)Nc1ccc2c(c1)OCCCO2,"inconclusive: 14.1 µM [activator, partial curve, poor fit]",
COc1ccc(/C=C/C(=O)c2cc(F)ccc2OC(=O)c2ccccc2)cc1OC,"inconclusive: 35.5 µM [activator, partial curve, poor fit]",
CC(C)Oc1cc(F)ccc1-c1cc(C(=O)NCc2ccccc2)[nH]n1,,inconclusive: 201% [activator]
COc1ccc(CNC(=O)C2CCN(c3nnc(-n4cccc4CNc4ccc(C)cc4)s3)CC2)c(OC)c1,"inconclusive: 25.1 µM [activator, partial curve, poor fit]",
Cc1ccc(C)c(Cn2c(=O)n(CCCCCC(=O)NCc3ccc4c(c3)OCO4)c(=O)c3sccc32)c1,,inactive: 5.54%
Cc1ccc2c(CC(=O)N(Cc3ccc(Cl)cc3)Cc3ccco3)coc2c1,"inconclusive: 17.8 µM [activator, single point]",
COc1cccc(C(=O)NCCSc2ccc(C)cc2)c1,"inconclusive: 25.1 µM [activator, partial curve, poor fit]",

SMILES,Potency,growth rescue (activation)
O=C(CCn1nc(-c2ccc(Cl)cc2)ccc1=O)NCc1ccccn1,"inconclusive: 20 µM [activator, single point]",
CSc1ccc(S(=O)(=O)N2CCC(C(=O)NCc3ccccn3)CC2)cc1,,inactive: -2.68%
Cc1nc(N2CCN(S(=O)(=O)c3ccccc3)CC2)c2cc(-c3ccccc3)sc2n1,"inconclusive: 12.6 µM [activator, single point]",
CC(C)COc1cccc(C(=O)N(C)CC(=O)Nc2cccc3ccccc23)c1,"inconclusive: 15.8 µM [activator, partial curve, poor fit]",
O=C(CN1C(=O)NC2(CCCC2)C1=O)NCC1CCCO1 (stereo not given),,inactive: -2.83%
Cc1n[nH]c(=S)n1/N=C/c1cccc(OCc2ccccc2)c1,"inconclusive: 12.6 µM [activator, single point]",
N#C/C(=C\c1ccc(Cl)s1)C(=O)N1CCN(c2ccccc2)CC1,"inconclusive: 11.2 µM [activator, partial curve, poor fit]",
Cc1nn2c(COc3ccc(NC(=O)c4ccccc4Cl)cc3)nnc2c2ccccc12,"inconclusive: 12.6 µM [activator, single point]",
CCOCc1c(C(=O)OCC(=O)Nc2ccc(C)c(S(=O)(=O)N(C)C)c2)oc2ccccc12,"inconclusive: 22.4 µM [activator, partial curve, poor fit]",
COc1ccc(/C=C(\C#N)c2c[nH]c3ccccc23)cc1,"inconclusive: 1.78 µM [activator, partial curve, poor fit]",
CCCSc1ncc(Cl)c(C(=O)Nc2c(C(=O)Nc3ccccc3)oc3ccccc23)n1,,inactive: 5.87%
O=C(Cn1c(=O)cnc2ccccc21)N1CCCc2ccccc21,"inconclusive: 15.8 µM [activator, partial curve, poor fit]",
Cc1nn(Cc2cccc(C(=O)NC3CCCCC3)c2)c(C)c1Cl,"inconclusive: 15.8 µM [activator, single point]",
CCOc1cc(/C=N/NC(=O)C(O)(c2ccccc2)c2ccccc2)ccc1OC(=O)c1ccco1,"inconclusive: 28.2 µM [activator, single point]",
COc1ccc(N2CC(C(=O)Nc3ccc(NC(C)=O)cc3)CC2=O)cc1 (stereo not given),,inactive: 6.05%
O=C(CSc1ccc2c(c1)OCCO2)NC(=O)Cc1ccccc1,"inconclusive: 17.8 µM [activator, partial curve, poor fit]",
O=C(c1cc(C2CCCCN2S(=O)(=O)c2ccc(F)cc2F)on1)N1CCOCC1 (stereo not given),,inactive: 4.87%
CC(=O)Oc1c(-c2ccc(Br)o2)oc2ccccc2c1=O,"inconclusive: 35.5 µM [activator, single point]",
COC(=O)CNC(=S)NC(=O)c1ccc(C(C)(C)C)cc1,"inconclusive: 10 µM [activator, partial curve, poor fit]",
Cc1cccc(N2CCN(C(=O)c3cccc(S(=O)(=O)N4CCCCC4)c3)CC2)c1C,"inconclusive: 35.5 µM [activator, single point]",
COc1ccc(NS(=O)(=O)c2ccc(NC(=O)c3ccc(Br)cc3)cc2)nn1,,inactive: 6.15%
Cc1ccccc1NC1=C/C(=N\S(=O)(=O)c2ccc(C(=O)O)cc2)c2ccccc2C1=O,"inconclusive: 14.1 µM [activator, partial curve, poor fit]",

SMILES,Potency,growth rescue (activation)
CC(C)NC(=O)NC(=O)COC(=O)/C=C/c1ccc2c(c1)OCO2,,inactive: 11.5%
C=CCn1cc(Cl)cc(C(=O)Nc2ccccc2)c1=O,"inconclusive: 22.4 µM [activator, partial curve, poor fit]",
Cc1cc(C(=O)Nc2cccc3ccccc23)n(-c2ccccc2)n1,"inconclusive: 15.8 µM [activator, partial curve, poor fit]",
COC(=O)C1CN(C(=O)COc2ccc(Cl)c(C)c2)c2ccccc2O1 (stereo not given),"inconclusive: 22.4 µM [activator, single point]",
OC(c1ccc(-c2ccccc2)cc1)c1ncc(-c2ccccc2Cl)[nH]1 (stereo not given),,inconclusive: 56.5% [activator]
COc1cccc(-c2cc(C(=O)NC3CCCCC3)no2)c1,"inconclusive: 2.51 µM [activator, full curve, poor fit]",
CC(C)NC(=O)c1ccc(COc2cc(Cl)ccc2Cl)o1,"inconclusive: 31.6 µM [activator, single point]",
COc1cc2c(cc1OC)CN(c1ccc(C(F)(F)F)cn1)CC2,"inconclusive: 25.1 µM [activator, partial curve, poor fit]",
CN(C)S(=O)(=O)c1cccc(NC(=O)COc2cccc3ccccc23)c1,"inconclusive: 35.5 µM [activator, partial curve, poor fit]",
Cc1ccc(NC(=O)CN(C)S(=O)(=O)c2cccc3cccnc23)c(C)c1,"inconclusive: 17.8 µM [activator, single point]",
O=S(=O)(Nc1ccc2c(c1)OCCO2)c1ccc(F)c(F)c1,"inconclusive: 10 µM [activator, partial curve, poor fit]",
COc1ccc(-c2cn(-c3ccccc3)nc2CO)cc1,"inconclusive: 35.5 µM [activator, single point]",
Cn1c(=O)c2c(ncn2CC(=O)OCC(=O)Nc2cc(Cl)ccc2C#N)n(C)c1=O,,inactive: -13.4%
CCOC(=O)/C(=N\Nc1ncnc2ccccc12)c1ccc(C)cc1,"inconclusive: 14.1 µM [activator, partial curve, poor fit]",
COCCn1c(-c2ccc(Cl)cc2Cl)nc2c(c(=O)c3ccccc3n2C)c1=O,,inactive: 1.93%
CC(=O)c1ccc(N2CCN(c3ccccc3O)CC2)c([N+](=O)[O-])c1,"inconclusive: 17.8 µM [activator, partial curve, poor fit]",
CCOC(=O)C1(Cc2ccc(OC)cc2)CCN(C(=O)C2=CCCC2)CC1,"inconclusive: 14.1 µM [activator, partial curve, poor fit]",
O=C(c1cccc(Cl)c1)N(Cc1ccco1)Cc1ccccc1Cl,"inconclusive: 22.4 µM [activator, single point]",
CC(C)c1ccc(NC(=O)Nc2nc(C(N)COCc3ccccc3)cs2)cc1 (stereo not given),,inactive: 13.4%
O=C(CSCc1ccc([N+](=O)[O-])cc1)NC1CC2CCC1C2 (stereo not given),"inconclusive: 35.5 µM [activator, single point]",
O=S(=O)(Nc1ncnc2sccc12)c1cccc(F)c1,,inactive: 19.2%
